{"source": "PubChem BioAssay AID1347073", "about": "(National Center for Advancing Translational Sciences (NCATS), 2019)", "note": "The campaign covered roughly 45,000 compounds. About 200 (0.44%) were called active. Inconclusive results (about 7%) are left out. Calls follow the shape of the dose curve; as a rule, active = well fitted activation curve with a large enough effect; inconclusive = small, poorly fitted or top-dose-only effect; inactive = no such curve, though single readings can be large or run the other way. Some of the results follow. Potency is read from the fitted curve at half-maximal effect."}
{"experiment": "qHTS of TDP-43 Inhibitors: NCGC Sytravon Library Screen; also: nearly all actives have a fitted effect of over 55% in size; as to growth rescue (activation): 0% is about no effect", "conditions": "yeast TDP-43 toxicity rescue, BacTiter-Glo growth, 24 h; series mostly up to 46.1 µM; growth rescue (activation): at the top concentration", "how_it_was_run": "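TDP-43-expressing yeast, pregrown in raffinose, seeded at OD600 0.02 in galactose medium with compound for 24 hr at 30 deg C. Growth read by BacTiter-Glo luminescence, so rescue of toxicity appears as activation.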"}
{"molecule": "COCCN1Cc2cc3cc(C)ccc3nc2SC1=Nc1ccc(OC)cc1", "growth rescue (activation)": "inactive: 7.54%"}
{"molecule": "CN(C)N=Nc1ccc(S(=O)(=O)NC(Cc2ccccc2)C(=O)O)cc1", "note": "(configuration not stated)", "growth rescue (activation)": "inactive: -6.57%"}
{"molecule": "O=C1c2ccccc2S(=O)(=O)N1CC(O)Cn1c2ccccc2c2ccccc21", "note": "(configuration not stated)", "Potency": "active: 12.6 µM"}
{"molecule": "CCOc1ccccc1N1CCN(C(=S)NC(=O)C23CC4CC(CC(C4)C2)C3)CC1", "growth rescue (activation)": "inactive: 17.9%"}
{"molecule": "COC(=O)c1sc2nc(CN3CCN(c4ccc(OC)cc4)CC3)[nH]c(=O)c2c1C", "growth rescue (activation)": "inactive: 10.8%"}
{"molecule": "COc1ccc(CNC(=O)C(C)OC(=O)c2cccs2)cc1", "note": "(configuration not stated)", "growth rescue (activation)": "inactive: 17.8%"}
{"molecule": "CCn1c(NCc2ccc(OC)c(OC)c2)nc2ccccc21", "growth rescue (activation)": "inactive: -0.665%"}
{"molecule": "COc1ccc(CCNC(=S)NCCc2c[nH]c3ccccc23)cc1", "growth rescue (activation)": "inactive: -12%"}
{"molecule": "CN(Cc1ccccc1NCC(=O)Nc1ccccc1C#N)C1CCCCC1", "growth rescue (activation)": "inactive: 12.2%"}
{"molecule": "N/C(=N\\N=C\\c1ccc([N+](=O)[O-])cc1)c1nonc1N", "growth rescue (activation)": "inactive: 10%"}
{"molecule": "O=C(C1CCN(S(=O)(=O)N2CCOCC2)CC1)N1CCN(c2ccc(F)cc2)CC1", "growth rescue (activation)": "inactive: 2.13%"}
{"molecule": "CC1CCCCC12NC(=O)N(CC(=O)NC1CCCc3ccccc31)C2=O", "note": "(configuration not stated)", "growth rescue (activation)": "inactive: -12.9%"}
{"molecule": "COC(=O)C1=C(N)Oc2cc(C)[nH]c(=O)c2C1c1ccccc1OC", "note": "(configuration not stated)", "growth rescue (activation)": "inactive: -18.4%"}
{"molecule": "CCc1cccc(C)c1NC(=O)CN1C(=O)NC(CCc2ccccc2)C1=O", "note": "(configuration not stated)", "growth rescue (activation)": "inactive: 4.76%"}
{"molecule": "N=c1oc2c3c4c(cc2cc1C(=O)Nc1ccccc1)CCCN4CCC3", "growth rescue (activation)": "inactive: 24%"}
{"molecule": "Cn1c(N)c(C(=O)COC(=O)Cc2ccccc2F)c(=O)n(C)c1=O", "growth rescue (activation)": "inactive: -1.53%"}
{"molecule": "Cc1cc[n+](-c2nc3ccccc3nc2[N-]S(=O)(=O)c2cccs2)cc1C", "growth rescue (activation)": "inactive: 5.07%"}
{"molecule": "CCN(CC)S(=O)(=O)c1ccc(N2CCCCC2)c(NC(=O)/C=C/c2cc(OC)c(OC)c(OC)c2)c1", "growth rescue (activation)": "inactive: 13.6%"}
{"molecule": "COC(=O)c1ccccc1NC(=S)NC(NC(=O)COc1ccccc1)C(Cl)(Cl)Cl", "note": "(configuration not stated)", "growth rescue (activation)": "inactive: 10.7%"}
{"molecule": "CS(=O)(=O)N1CCCC(C(=O)Nc2cccc(F)c2)C1", "note": "(configuration not stated)", "growth rescue (activation)": "inactive: -5.14%"}
{"molecule": "COc1ccc(C2=NO[C@@H]3[C@@H]4C[C@@H]([C@H]5C(=O)N(c6ccc7c(c6)OCO7)C(=O)[C@@H]45)[C@H]23)cc1OC", "growth rescue (activation)": "inactive: 11.9%"}
{"molecule": "COc1ccccc1CN(C)C(=O)c1cc(C)nc2ccccc12", "growth rescue (activation)": "inactive: -12.7%"}
{"molecule": "COc1ccc(C(=O)N/C(=C\\c2ccc3c(c2)OCO3)C(=O)NCCc2nc3ccccc3[nH]2)cc1", "growth rescue (activation)": "inactive: 1.95%"}
{"molecule": "O=C(O)c1ccccc1C(=O)c1ccc(N2CCOCC2)c([N+](=O)[O-])c1", "growth rescue (activation)": "inactive: -1.14%"}
{"molecule": "N#Cc1ccc(-c2cccs2)nc1SCc1cccnc1", "growth rescue (activation)": "inactive: 15.9%"}
{"molecule": "CC(=O)NCCC1CCCCN1Cc1nc(Cc2cccc(C(F)(F)F)c2)no1", "note": "(configuration not stated)", "growth rescue (activation)": "inactive: 7.74%"}
{"molecule": "NS(=O)(=O)c1ccc(CCNC(=O)C(=O)C2C(=O)Nc3ccccc32)cc1", "note": "(configuration not stated)", "growth rescue (activation)": "inactive: 16.9%"}
